The values below come from article PMC10320511.

These are yes or no findings as the source states them, for the method shown. Binding seen in cells or lysates may run through a third protein. Where a sequence is shown, tags or fusion partners need not be part of it.

For assay [1], the target named is T1, FRQ Δ511–558, V5H6-tagged (Neurospora crassa) (UniProt P19970).
T1 sequence: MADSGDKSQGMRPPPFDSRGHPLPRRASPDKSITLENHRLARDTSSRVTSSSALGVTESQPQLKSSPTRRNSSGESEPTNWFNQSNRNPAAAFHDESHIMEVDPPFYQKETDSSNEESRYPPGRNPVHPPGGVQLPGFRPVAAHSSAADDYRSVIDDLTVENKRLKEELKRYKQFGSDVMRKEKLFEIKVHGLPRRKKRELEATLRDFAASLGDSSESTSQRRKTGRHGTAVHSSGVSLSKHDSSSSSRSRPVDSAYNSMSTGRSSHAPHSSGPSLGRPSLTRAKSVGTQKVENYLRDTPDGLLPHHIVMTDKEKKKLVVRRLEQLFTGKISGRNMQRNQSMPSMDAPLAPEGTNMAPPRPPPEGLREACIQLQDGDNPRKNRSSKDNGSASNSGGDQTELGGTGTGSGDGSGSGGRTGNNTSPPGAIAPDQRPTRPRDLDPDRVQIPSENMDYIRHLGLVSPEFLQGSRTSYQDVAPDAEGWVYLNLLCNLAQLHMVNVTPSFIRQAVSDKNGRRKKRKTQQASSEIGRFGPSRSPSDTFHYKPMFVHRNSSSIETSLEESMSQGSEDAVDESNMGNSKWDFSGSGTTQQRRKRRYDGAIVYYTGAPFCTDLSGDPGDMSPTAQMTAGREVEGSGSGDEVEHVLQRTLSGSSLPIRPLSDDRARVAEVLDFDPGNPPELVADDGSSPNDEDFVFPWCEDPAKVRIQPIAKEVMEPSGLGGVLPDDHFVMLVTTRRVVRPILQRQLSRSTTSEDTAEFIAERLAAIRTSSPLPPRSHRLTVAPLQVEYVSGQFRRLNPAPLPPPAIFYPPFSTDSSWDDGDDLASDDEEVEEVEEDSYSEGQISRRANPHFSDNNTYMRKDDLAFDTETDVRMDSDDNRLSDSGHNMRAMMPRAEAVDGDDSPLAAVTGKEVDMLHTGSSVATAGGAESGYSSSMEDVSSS
In words: co-IP; V5H6-tagged FRQ (wild type or mutant) pulled down with V5 agarose from Neurospora lysate (cultures in the light, 25 °C); 50 mM Hepes pH 7.4, 137 mM NaCl, 10% glycerol, 0.4% NP-40; 4 °C, 2 h; Western blot with FRQ, FRH, WC-1 and WC-2 antibodies.

For assay [2], the target named is T2, FRQ Δ194–199, V5H6-tagged (Neurospora crassa) (UniProt P19970).
T2 sequence: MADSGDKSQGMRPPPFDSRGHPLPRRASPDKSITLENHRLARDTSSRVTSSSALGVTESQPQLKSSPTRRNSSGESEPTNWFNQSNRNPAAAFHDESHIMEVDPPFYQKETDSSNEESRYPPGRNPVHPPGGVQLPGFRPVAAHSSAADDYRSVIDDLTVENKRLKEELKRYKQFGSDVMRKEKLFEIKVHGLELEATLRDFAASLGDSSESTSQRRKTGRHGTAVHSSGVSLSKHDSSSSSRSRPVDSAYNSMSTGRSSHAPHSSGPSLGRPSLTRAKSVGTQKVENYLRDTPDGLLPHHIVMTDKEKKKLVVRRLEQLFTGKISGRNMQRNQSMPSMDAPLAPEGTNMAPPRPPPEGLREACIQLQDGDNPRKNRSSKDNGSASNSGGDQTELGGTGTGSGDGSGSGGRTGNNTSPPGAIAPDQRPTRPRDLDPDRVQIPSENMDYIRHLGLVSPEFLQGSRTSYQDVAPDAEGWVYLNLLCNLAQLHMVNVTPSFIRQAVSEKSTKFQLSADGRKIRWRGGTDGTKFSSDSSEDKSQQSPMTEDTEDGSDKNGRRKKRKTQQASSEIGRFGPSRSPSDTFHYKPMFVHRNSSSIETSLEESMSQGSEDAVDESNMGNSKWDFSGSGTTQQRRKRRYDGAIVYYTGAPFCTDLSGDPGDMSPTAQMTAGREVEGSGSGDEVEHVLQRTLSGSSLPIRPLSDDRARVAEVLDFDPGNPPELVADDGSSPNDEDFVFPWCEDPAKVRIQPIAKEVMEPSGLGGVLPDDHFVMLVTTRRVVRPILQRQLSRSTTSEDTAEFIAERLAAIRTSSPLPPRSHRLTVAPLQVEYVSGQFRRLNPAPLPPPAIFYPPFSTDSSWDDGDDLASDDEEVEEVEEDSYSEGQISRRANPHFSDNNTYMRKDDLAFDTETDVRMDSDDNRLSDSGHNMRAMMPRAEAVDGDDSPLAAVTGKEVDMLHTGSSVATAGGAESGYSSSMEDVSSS
The assay is described as above.

B1: White Collar-2 (WC-2) (protein, UniProt P78714 1-530)
chain: MSHGQPPPGSSMYGFGAMGMGSGMGSGMGSGMGTGMGTGMGTGMSASQMTSDPQDMMSLLDTSVFPGFDGMSMSLDVGDSMSNPFTPVSVPPPLPAGNAGPSHVGVCGGHGAPDQLFSPDDLIATSMSSAGPMIATPTTTTSGPSGGPSSGGGSTLTEFTKRRNWPAKVVEELQDWEHILDANGRIKHVSPSVEPLTGYKPPEIIDLFLRDLIHPDDVGVFTAELNEAIATGSQLRLFYRFRKKDGNWTIFETVGHAHIAAAKFAPNPQNQSPFCQAVFMMARPYPTKNAGLLDSFLEHKIENERLKRRIAELRREEQEEQEESHRTWRMSQEGRSDVTPSDDTATQMGMTPFYIPMNAQADVMMPPPSQPASSLNIALTRENLEGIAGSRPDSIREKMLRYEGNHADTIEMLTGLKYQEGERSHGITTGNASPTLIKGDAGIAIPLDRDPRTGEKKKKIKVAEEYVCTDCGTLDSPEWRKGPSGPKTLCNACGLRWAKKEKKKNANNNNNGGGIGGHNDIHTPMGDHMG
Consider B1, for which the binding result in assay [1] and in assay [2] was “no binding” throughout.
